# In article PMC7819943, “Rice protein-binding microarrays: a tool to detect cis-acting elements near promoter regions in rice”:
# The other results are listed elsewhere or left out.
# Biological target: T1, OsWOX13 (Oryza sativa, UniProt Q5QMM3 1-267)
# T1 sequence: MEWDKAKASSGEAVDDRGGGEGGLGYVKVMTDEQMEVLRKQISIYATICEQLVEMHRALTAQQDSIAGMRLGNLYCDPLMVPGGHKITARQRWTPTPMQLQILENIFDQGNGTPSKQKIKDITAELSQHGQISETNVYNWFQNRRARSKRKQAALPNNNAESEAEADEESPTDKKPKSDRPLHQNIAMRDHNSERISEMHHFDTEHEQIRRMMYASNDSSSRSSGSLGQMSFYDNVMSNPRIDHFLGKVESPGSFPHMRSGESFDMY
# Experiment: protein-binding microarray (RPBM); PBS, 2% BSA, 51.3 ng/ul salmon testes DNA, 50 uM zinc acetate, 200 nM TF, 25 C, 1 h; high values mean tight binding
# Settings: protein: recombinant; tags: N-terminal polyhistidine and DsRed monomer fusion (pET32a); label: CyDye5-dUTP incorporated in the synthesized complementary strand; 3' TTTTT single-stranded linker to array surface; dsDNA, one strand shown
# How it was run: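 The binding signal is fluorescence intensity per array feature (arbitrary units). Readings came from an Axon 4000B scanner after a washed, 2% BSA-blocked, double-stranded custom Agilent array had been incubated for 1 h at 25 °C with 200 nM protein and 50 µM zinc acetate. The protein was a Ni–NTA-purified transcription factor fused N-terminally to polyhistidine and DsRed, expressed in E. coli BL21-CodonPlus.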
row,Sequence,binding signal
1,AAAATAAATTAAAATAACACAAAGCGCTAAAATGATGGGCCGGAGTCACCTAGTGCAG,14800 fluorescence intensity (a.u.)
2,AGTTAATAATTTGTGATATTGTGTTGTATGTGCCTAGCTACGGAGTCACCTAGTGCAG,18800 fluorescence intensity (a.u.)
3,AATATAATAAATTTGACGTTAATATTTTAACTCTAGGTGTCGGAGTCACCTAGTGCAG,13800 fluorescence intensity (a.u.)
4,ATATTTATAATTAGTGTCCAAACATCCGATGTGACAGGGACGGAGTCACCTAGTGCAG,9610 fluorescence intensity (a.u.)
5,AAACTTAAATTTATTTGGTATTAACACATGCAATGAGGGACGGAGTCACCTAGTGCAG,6470 fluorescence intensity (a.u.)
6,TTTCATAATATGTGGGTAATTTGTTGCAACAACGCATGTGCGGAGTCACCTAGTGCAG,4660 fluorescence intensity (a.u.)
7,AAATAACTGAGTAGATTATCGGCTTTGGATGTAATGAATTCGGAGTCACCTAGTGCAG,6590 fluorescence intensity (a.u.)
8,AGTTGATAGATGTGTTCAATGTGTTCAATTAAACTGTATCCGGAGTCACCTAGTGCAG,25600 fluorescence intensity (a.u.)
9,ATGTGTCAATTAATTATTTGCCACTCGCTGTCTATGACATCGGAGTCACCTAGTGCAG,28300 fluorescence intensity (a.u.)
10,ACTGATAGAATTAGCTCTATGCATAATGCATGGCTGTCTCCGGAGTCACCTAGTGCAG,34300 fluorescence intensity (a.u.)
11,ACTAGATTGCCGTTTAGTTTGCTACTATGTATTGCGTTAGCGGAGTCACCTAGTGCAG,28600 fluorescence intensity (a.u.)
12,ATTCATAATAATCTAGATTATAATAATTCTAAGCTGAATCCGGAGTCACCTAGTGCAG,11000 fluorescence intensity (a.u.)
13,CTAGATTGAGAGCATCTGATTCAATAATTAGACTTTCAATCGGAGTCACCTAGTGCAG,45100 fluorescence intensity (a.u.)
14,AGTAATTATAATATGTCTATTATATCAGTTGGCTATAATGCGGAGTCACCTAGTGCAG,32100 fluorescence intensity (a.u.)
15,TAAATTAATTAATTAGGTATAAATGTAATTAAGCACATCGCGGAGTCACCTAGTGCAG,55000 fluorescence intensity (a.u.)
16,AAAATAGAATGCCAATTTTGTCCAAATTTCCCAGGTACCGCGGAGTCACCTAGTGCAG,15700 fluorescence intensity (a.u.)
17,ATCTAATCAAGCACAACTCCAGTTCCTGCTTACTGCCACCCGGAGTCACCTAGTGCAG,5400 fluorescence intensity (a.u.)
18,TGCATAATTCAAATCAATCGACATCGTTCATGTGCTTCAGCGGAGTCACCTAGTGCAG,10500 fluorescence intensity (a.u.)
19,ATAGGTTAATTTGCATAAATGCCAATTTTAGTTCACAACACGGAGTCACCTAGTGCAG,10300 fluorescence intensity (a.u.)
20,CTCCAATCCAATCATCATCGATCAGTACTACTGTGACCAACGGAGTCACCTAGTGCAG,23600 fluorescence intensity (a.u.)
21,AGAAATAATTACCCAATTACTACTACTAGTGCTAACATATCGGAGTCACCTAGTGCAG,31100 fluorescence intensity (a.u.)

row,Sequence,binding signal
1,GCATGATATGATTCCTCCTGCTTTGATTCCAGTACATGTCCGGAGTCACCTAGTGCAG,4020 fluorescence intensity (a.u.)
2,GGTGGTGCATTTCATCAATCAGGTTTGAAACTCTGAATATCGGAGTCACCTAGTGCAG,9870 fluorescence intensity (a.u.)
3,TTAATTAATTGCTAATTACACTAATTAATTTATTGATAGCCGGAGTCACCTAGTGCAG,65200 fluorescence intensity (a.u.)
4,TAAGCCTAATTAATCTATTATTAGCAAATGTTTACTATAGCGGAGTCACCTAGTGCAG,6510 fluorescence intensity (a.u.)
5,GCTGACATATAGTCAACCGGCTGTTACTTGCATCCGAACACGGAGTCACCTAGTGCAG,4720 fluorescence intensity (a.u.)
6,GATAATGGCCCTTAAATTGATTGCAACTCACGGTGATACACGGAGTCACCTAGTGCAG,44800 fluorescence intensity (a.u.)
7,TATATATATATATATATATATATATATATGAGAAGGTTACCGGAGTCACCTAGTGCAG,11900 fluorescence intensity (a.u.)
8,TTGATTGATTTGTTTGCACTCCATGAAATAAGTGAGGGCTCGGAGTCACCTAGTGCAG,65200 fluorescence intensity (a.u.)
9,TTGTGTGCTTCAATTTAATTTGTATCTCAAATTCTTTCAGCGGAGTCACCTAGTGCAG,4340 fluorescence intensity (a.u.)
10,GGCACCTCTATGATTGATGGTTACATTGAGACCGATTGTGCGGAGTCACCTAGTGCAG,46900 fluorescence intensity (a.u.)
11,TTCAATTAGTTACATATCAATTGCTGGTTTACAGAGTTGGCGGAGTCACCTAGTGCAG,15000 fluorescence intensity (a.u.)
12,TAGAACAACCAATCAAACAAATATGCTGTTCATTGTTGAACGGAGTCACCTAGTGCAG,10400 fluorescence intensity (a.u.)
13,ATATTAAATTTATAGTTTTACGATAATTTGACCAATATATCGGAGTCACCTAGTGCAG,8760 fluorescence intensity (a.u.)
14,CTAACTAATCTAATCTCCCTCCTGTATCTTGCGCGGTTGGCGGAGTCACCTAGTGCAG,6470 fluorescence intensity (a.u.)
15,GATCTGATTGAGACATATCTGAAAATAATTTGCACGCAGACGGAGTCACCTAGTGCAG,30600 fluorescence intensity (a.u.)
16,TCCAAAGGAAATCGTGACTTAATTAACACCATTTCTCTACCGGAGTCACCTAGTGCAG,3880 fluorescence intensity (a.u.)
17,AAGGTAATTAAGGTCGATGGAATTTCTCAGATTAAATGGCCGGAGTCACCTAGTGCAG,24200 fluorescence intensity (a.u.)
18,TTTCATATTATAAATCAAATTTGTTTAGCTTTGACAATGTCGGAGTCACCTAGTGCAG,11100 fluorescence intensity (a.u.)
19,TGTATAATTTTGTGATTTGCTGTATGGATCTGAGATGTATCGGAGTCACCTAGTGCAG,32700 fluorescence intensity (a.u.)
20,CTACCCTCTTGTGATTAGATAATGCAGTGGTTCTCTGAACCGGAGTCACCTAGTGCAG,4680 fluorescence intensity (a.u.)
21,AGGATCAAAATTGCATGATTTTGTATAGTTTAGGGATGAACGGAGTCACCTAGTGCAG,3210 fluorescence intensity (a.u.)
